Results: the RNAGym collection of RNA variant scans (doi:10.7554/elife.90254)
Read counts are not given, so values of variants with three or more changes are uncertain.

B1: LINE1-mini (parent)
chain: GGCAGAGCUCAACACAGCGUGGCAAAGUGGCUGUGGCUAGACUGCC

Variants of: B1
Assay: self-cleavage, relative activity (ratio to wild type); higher = more cleavage; in vitro, sequencing; the parent is a self-cleaving ribozyme

Variant | self-cleavage
G21U U38G A39U | 0.04
C23G A26C G27U C45U | 0.46
A24U G27A C45U | 1.17
G22U C31G G33C | 0.07
G22U G33A U38G | 0.04
C23G G29U G30A | 2.34
G22A U28C G29U U38G | 0
A24U U34A G36A C45A | 0.01
A24U A25C A26U U34C | 0.02
G22C C23U G33C A39U | 0.08
G22A A24U A39C | 0.04
G22U A24U C37G A41U | 0.04
C23A U32G G33C | 0.05
G22C U34C U43A C45A | 0.04
C23G A24U C31U | 0.15
C23U G29A C31A G44C | 0.17
A24U G30U A41U | 0.52
G21U G33A A41G | 0.15
A24U G35C C46U | 0.05
A24G G33C C37U | 0.05
G22C U32G C46A | 0.04
G22C C23A G30C G36U | 0.02
G21U G30U G44U | 0.08
A24C G30A U34G G44A | 0.03

Variant | self-cleavage
G22A G27U U34C G35U A39C | 0
A24C G29C G44U | 0.16
G22A C31U A41C | 0.12
G22C U28A U34A | 0.18
C23U U38G A41U | 0.02
G22C C23U G36C | 0.04
A24U G30U C42U G44U | 0.03
A24G U32C G33U U38A | 0.03
A24U A25C C45A | 0.62
G22C C31A A39U | 0.06
C23G A26C G33U | 0.12
A24G G30C G40C C42A | 0
G22C U34G U38A | 0.18
G21U U32A G36C | 0.01
A24U G29U G36U | 0.04
C23G U32A U38A G44U | 0.03
C23A U28A G29A | 0.37
A24U A26C U28A G35A G36U C37U | 0.02
C23U A24U U32G | 0.84
G21U G33C C37U | 0.03
A24C G30U G35U G40A | 0.08
G22C A26U C31A G33A G36U | 0.08
G22U C23G G27A U32G | 0.62
C23A U32G C42U C45G | 0.11

Variant | self-cleavage
G22A C31G U32G | 0.06
G22A A24U C31A A41U | 0.17
C23U C31U U32C A39G | 0.02
G22A U32A C46A | 0.09
A24U G35U A41C | 0.06
C23G C31U G44C | 0.05
G21U U38C C45A | 0.18
G22U C23G A25G | 0.64
G22C G33A C37U | 0.03
A24G U28G G29C A39U | 0.21
C23A A25U A26C | 1
A24C G33A U34A | 0.06
C23U G29U G30U C37U | 0.08
G22A C23G G36A | 0.11
C23U A25C G29A C42A | 0.05
G22U G30U C31G A41G | 0.33
G22C U34A C42U | 0.06
G22U C23A C31U | 0.64
C23U A26C U32C U38A C46A | 0
A25C A26C G27U | 0.82
G21U U28G C31U A41U | 0.56
G22U U28A G33A | 1.82
A25C A26G U28C | 0.32
A24U U34C G36U G40C | 0.05

Variant | self-cleavage
C23G G27U C37A | 0.01
G22A C23G G30A G40A | 0.09
G22U G27A A41G | 0.24
A25C A26G G29C G30C | 0.27
G22C G36C G40C | 0.12
G22A U34G C42A | 0.03
C23U A24U G33A | 0.15
C23U A24G U43G | 0
A24U A25C G29C C31U G44C | 0.17
A24C G44A C45U | 0.01
G22A G27C C42A | 0.14
A24U U32C C37A | 0.16
C23G C31U G36U U38A | 0.03
G21U U34G G40A | 0.01
A24G A25G C31G | 0.01
G22U U28C G30C | 0.86
C23A G29U G33A U34A C46G | 0.07
C23A G27C C31A C42A | 0.06
C23G G29U G40U | 0.14
A24U A25C G30C | 0.37
G22C A24U G29C A41C | 0.02
A25C A26U G27A G29U | 0.59
C23U G36U A41U G44C | 0.02
G22U A24U C37U | 0.02

Variant | self-cleavage
A24U G36U U43G | 0
C23U G35A C45A | 0.1
A24G A26G G33C | 0.05
G21U U32G A39C | 0.09
G22U A26G G40U U43G | 0.01
G22C A24C C45A | 0.11
C23G G29A A39U | 0.29
G22A A25U C42A | 0.04
G22A A24G G36U C37U C45A | 0.01
A24G C31A U32C | 0
G22A G33U U34A G35A A41U | 0.03
A24C C31U G33A | 0.03
G22A G27U C46A | 0.87
C23U C37U U38C | 0.03
A24C A25C U34G U43C | 0
A24U G30C G33C | 0.03
A24C U32A C37G G40U | 0.01
G22U G36C A39U C42G C46U | 0.05
G22C G29C C45G | 0.02
C23U A25U C37G C46U | 0.01
C23A A24G G27A C37A | 0.03
C23A A24C U43G | 0
A24U C45U C46A | 0.66
A24C C31A U43A | 0.05

Variant | self-cleavage
A24U A25U G30A | 1.97
G22C A41U U43A | 0.09
C23A G33U C45G | 0.06
G22U G33U G44A | 0.07
C23A G29C U43G C45U | 0.01
C23G G29C G36U G44A | 0.01
C23A U28A C37U | 0.01
C23A U34A G35U G36U | 0.17
C23A A25U G30U G33A G44U | 0.05
G22U G33A C45G | 0.12
C23A A26G A39U | 0.4
C23A U32C C37U | 0.07
C23G A24C A26C G27U | 0.23
G22C U28C C31A A39U U43A | 0.04
A24U G35A C37G C45A | 0.04
G22C A41U C45U | 0.06
A24C G27C A41U | 0.09
A24U A39G C42A | 0.26
A24G G30A U38G | 0.02
G22U G35U G40A | 0.17
G22U G35U G44C | 0.08
G22A C37G A41C | 0.03
A24U A25C U28A | 0.48
G22U A26G C42U | 0.54

Variant | self-cleavage
G22U A24C G30A G44U | 0.05
A24C U38G G40U | 0.02
C23U G30U U32G U43A | 0.03
A24U G29U C46G | 2.7
A24G G29A G36U U43C | 0.02
G22U C23A G29U G33A | 0.69
G22C U38G U43C | 0
G21U U38C A39C | 0.09
G22A C37A C46A | 0.02
G22U C23A U34A C42U | 0.13
G21U U34G C45A | 0.04
C23A A25C U43G G44U | 0.13
G21U U28G C31U G36U | 0
C23G C31A G40A | 0.03
C23A A24U G35U A41U | 0.05
C23A G29U U34C | 0.58
G22A G33A C37U C45A | 0.04
C23A A41C C46G | 0.01
C23G U28G U38A | 0.09
A24G G40A C45G | 0.07
C23U G33A G36A C37G | 0.03
G22A A25U A39U G40U | 0.28
G22A C42U U43A | 0.06
